Assay results: patent publication US20260263442A1, “METHOD FOR TREATING L-DOPA-INDUCED DYSKINESIA USING BEFIRADOL” (Neurolixis, Inc., priority 2023, published 2026)

Tested on: patients with moderate to severe L-DOPA-induced dyskinesia (LID) in Parkinson's disease
Assay: Adverse events, Phase 2a study of NLX-112 versus placebo

Cc1ccc(CNCC2(F)CCN(C(=O)c3ccc(F)c(Cl)c3)CC2)nc1 [NLX-112]
6 (33%) n (%): Psychiatric disorders (system organ class), subjects n (%) (Full analysis set, N = 18)
1: Investigations (system organ class), events m (Full analysis set, N = 18) | Lip injury, events m (Full analysis set, N = 18) | Metabolism and nutrition disorders (system organ class), events m (Full analysis set, N = 18) | Micturition urgency, events m (Full analysis set, N = 18) | Muscle spasms, events m (Full analysis set, N = 18) | Musculoskeletal stiffness, events m (Full analysis set, N = 18) | Nasopharyngitis, events m (Full analysis set, N = 18) | On and off phenomenon, events m (Full analysis set, N = 18) | Oral pain, events m (Full analysis set, N = 18) | Pain in extremity, events m (Full analysis set, N = 18) | Palpitations, events m (Full analysis set, N = 18) | Parosmia, events m (Full analysis set, N = 18) | Pollakiuria, events m (Full analysis set, N = 18) | Product communication issue, events m (Full analysis set, N = 18) | Rapid eye movement sleep behaviour disorder, events m (Full analysis set, N = 18) | Sleep disorder, events m (Full analysis set, N = 18) | Somnolence, events m (Full analysis set, N = 18) | Stress, events m (Full analysis set, N = 18) | Swelling of eyelid, events m (Full analysis set, N = 18) | Systolic hypertension, events m (Full analysis set, N = 18) | Tinnitus, events m (Full analysis set, N = 18) | AE causality: Probably Related, events m (down-titration, N = 15)
2 (13) n (%): AE causality: Possibly Related, subjects n (%) (down-titration, N = 15)
1 (6.7) n (%): AE causality: Probably Related, subjects n (%) (down-titration, N = 15)
4: Nausea, events m (Full analysis set, N = 18)
1 (5.6%) n (%): Investigations (system organ class), subjects n (%) (Full analysis set, N = 18) | Lip injury, subjects n (%) (Full analysis set, N = 18) | Metabolism and nutrition disorders (system organ class), subjects n (%) (Full analysis set, N = 18) | Micturition urgency, subjects n (%) (Full analysis set, N = 18) | Muscle spasms, subjects n (%) (Full analysis set, N = 18) | Musculoskeletal stiffness, subjects n (%) (Full analysis set, N = 18) | Nasopharyngitis, subjects n (%) (Full analysis set, N = 18) | On and off phenomenon, subjects n (%) (Full analysis set, N = 18) | Oral pain, subjects n (%) (Full analysis set, N = 18) | Pain in extremity, subjects n (%) (Full analysis set, N = 18) | Palpitations, subjects n (%) (Full analysis set, N = 18) | Parosmia, subjects n (%) (Full analysis set, N = 18) | Pollakiuria, subjects n (%) (Full analysis set, N = 18) | Product communication issue, subjects n (%) (Full analysis set, N = 18) | Rapid eye movement sleep behaviour disorder, subjects n (%) (Full analysis set, N = 18) | Sleep disorder, subjects n (%) (Full analysis set, N = 18) | Somnolence, subjects n (%) (Full analysis set, N = 18) | Stress, subjects n (%) (Full analysis set, N = 18) | Surgical and medical procedures (system organ class), subjects n (%) (Full analysis set, N = 18) | Swelling of eyelid, subjects n (%) (Full analysis set, N = 18) | Systolic hypertension, subjects n (%) (Full analysis set, N = 18) | Tinnitus, subjects n (%) (Full analysis set, N = 18)
5 (28%) n (%): Musculoskeletal and connective tissue disorders (system organ class), subjects n (%) (Full analysis set, N = 18)
3: Parkinsonism, events m (Full analysis set, N = 18) | Vascular disorders (system organ class), events m (Full analysis set, N = 18) | AE causality: Possibly Related, events m (down-titration, N = 15)
2/18: Number of dizziness adverse events per patient (NLX-112 group, events/patients)
71/18: Number of adverse events per patient (NLX-112 group, events/patients)
2 (11%) n (%): Orthostatic hypotension, subjects n (%) (Full analysis set, N = 18) | Renal and urinary disorders (system organ class), subjects n (%) (Full analysis set, N = 18) | Restless legs syndrome, subjects n (%) (Full analysis set, N = 18) | Vertigo, subjects n (%) (Full analysis set, N = 18) | Vomiting, subjects n (%) (Full analysis set, N = 18)
0 n (%): Irritability, subjects n (%) (Full analysis set, N = 18) | Neck pain, subjects n (%) (Full analysis set, N = 18) | Rhinitis, subjects n (%) (Full analysis set, N = 18) | SAE: Congenital Anomaly or Birth Defect, subjects n (%) (Full analysis set, N = 18) | SAE: Is Life Threatening, subjects n (%) (Full analysis set, N = 18) | SAE: Other Medically Important Serious Event, subjects n (%) (Full analysis set, N = 18) | SAE: Persistent or Significant Disability/Incapacity, subjects n (%) (Full analysis set, N = 18) | SAE: Requires or Prolongs Hospitalization, subjects n (%) (Full analysis set, N = 18) | Skin and subcutaneous tissue disorders (system organ class), subjects n (%) (Full analysis set, N = 18) | Syncope, subjects n (%) (Full analysis set, N = 18) | Taste disorder, subjects n (%) (Full analysis set, N = 18) | AE action: Dose Reduced, subjects n (%) (down-titration, N = 15) | AE action: Drug Interrupted, subjects n (%) (down-titration, N = 15) | AE action: Not Applicable, subjects n (%) (down-titration, N = 15)
10 (56%) n (%): Nervous system disorders (system organ class), subjects n (%) (Full analysis set, N = 18)
89%: Proportion of patients experiencing an adverse event (NLX-112 group)
16: Nervous system disorders (system organ class), events m (Full analysis set, N = 18)
4 (27) n (%): AE action: Dose Not Changed, subjects n (%) (down-titration, N = 15)
9: Psychiatric disorders (system organ class), events m (Full analysis set, N = 18)
4 (22%) n (%): Nausea, subjects n (%) (Full analysis set, N = 18)
2: Orthostatic hypotension, events m (Full analysis set, N = 18) | Renal and urinary disorders (system organ class), events m (Full analysis set, N = 18) | Restless legs syndrome, events m (Full analysis set, N = 18) | Surgical and medical procedures (system organ class), events m (Full analysis set, N = 18) | Vertigo, events m (Full analysis set, N = 18) | Vomiting, events m (Full analysis set, N = 18) | AE causality: Unlikely Related, events m (down-titration, N = 15)
6: Musculoskeletal and connective tissue disorders (system organ class), events m (Full analysis set, N = 18) | AE action: Dose Not Changed, events m (down-titration, N = 15)
0: Irritability, events m (Full analysis set, N = 18) | Neck pain, events m (Full analysis set, N = 18) | Rhinitis, events m (Full analysis set, N = 18) | SAE: Congenital Anomaly or Birth Defect, events m (Full analysis set, N = 18) | SAE: Is Life Threatening, events m (Full analysis set, N = 18) | SAE: Other Medically Important Serious Event, events m (Full analysis set, N = 18) | SAE: Persistent or Significant Disability/Incapacity, events m (Full analysis set, N = 18) | SAE: Requires or Prolongs Hospitalization, events m (Full analysis set, N = 18) | Skin and subcutaneous tissue disorders (system organ class), events m (Full analysis set, N = 18) | Syncope, events m (Full analysis set, N = 18) | Taste disorder, events m (Full analysis set, N = 18) | AE action: Dose Reduced, events m (down-titration, N = 15) | AE action: Drug Interrupted, events m (down-titration, N = 15) | AE action: Not Applicable, events m (down-titration, N = 15)
3 (17%) n (%): Parkinsonism, subjects n (%) (Full analysis set, N = 18) | Vascular disorders (system organ class), subjects n (%) (Full analysis set, N = 18)
